In all, about 150,000 compounds went through this assay and about 540 (0.36%) showed an effect of 50% or more. This is one part of the list.
system: Plasmodium falciparum; assay: Primary screen in NF54 nanoGlo assay, in single point, at 2uM, 72h; a lower Z score goes with more inhibition; type: functional, Erythrocyte; conditions: timepoint 72 hour

SMILES	% Inhibition [%]	Z score
COc1ccc(Br)cc1CC(=O)N(C)C1CCN(c2cc(C)nc(C)n2)CC1	-5	0.74
COc1cccc(C2C(C(=O)NCc3ccc(F)cc3)c3ccccc3C(=O)N2C2CC2)c1 (centres undefined)	-11	1.89
Cc1ccc(Cl)cc1NC(=O)C(C(=O)Nc1cc(Cl)ccc1C)c1ccccc1	-8	1.06
CC1(C)C(NC(=O)Cc2cccc(C(=O)O)c2)C2CCCOC21 (centres undefined)	0	-0.02
CN(C(=O)CC1CCCC1)c1cnn(C)c1	-10	1
O=S(=O)(c1ccccc1)N1CCC2(CC1)C[C@@H](CCOCC1CC1)CCO2	-2	0.46
CNC(=O)[C@@H]1CCCN1C(=O)Nc1ccc2c(ccn2CC(C)C)c1	27	-3.03
CC(C)CCN1C[C@@H](O)CNS(=O)(=O)c2ccc(-c3ccccc3F)cc2OC[C@@]2(C[C@@H](O)[C@@H](O)C2)C1	-25	4.04
c1cncc(-c2n[nH]cc2CNCCc2cccc3cccnc23)c1	-2	0.34
Cc1cnc(CN2C[C@]3(CCCN(C(=O)c4ccc[nH]4)C3)CCC2=O)cn1	-18	2.52
CCc1cc(C(=O)N2CCc3c(cc(-c4ccccc4Cl)c(=O)n3Cc3ccncc3)C2)no1	-12	1.53
NC(=O)c1ccnc(NC[C@H]2CCCC[C@@H]2O)c1Br	4	-0.54
COc1cc(CNC[C@]2(O)CCc3ccccc32)ccc1OC(C)C	-1	0.08
CNc1nc2c(c(C(=O)N3CCCC3)n1)CN(C(=O)CCOC)CC2	3	-0.5
CCN(CC(C)C#N)C(=O)CNC(CCO)C1CCCCC1 (centres undefined)	-14	1.94
CC(C)c1noc(NCCCn2ccnc2)n1	-8	0.72
COc1ccc(-c2cc3n(n2)C[C@@](C)(C(=O)NCc2ccccc2OC)N(c2ccc(C)cc2)C3=O)cc1	-4	0.55
Cc1cc(C)n(C[C@H](C)N2CCN(CCc3ccccc3)CC2)n1	-1	0.2
c1cn(-c2ccc(-c3noc(-c4ccoc4)n3)cn2)cn1	-6	0.61
CS(=O)(=O)CCCN1CCC(C2CCOCC2)CC1	11	-1.31
C[C@](O)(CNS(=O)(=O)C1CC1)c1cc2ccccc2o1	-15	1.95

SMILES	% Inhibition [%]	Z score
O=C(N[C@H]1CCS(=O)(=O)C1)c1cc(C2CC2)nc2ccccc12	-9	1.22
Cc1c(C(=O)N[C@H]2CCCc3ccccc32)sc2ncnc(N(C)C3CCCCC3)c12	-13	1.18
O=S(=O)(c1ccc2c(c1)OCCO2)N1CN(C2CCCC2)c2nc3ccccc3nc21	-12	1.81
CN1C(=O)CN(C(=O)NC(c2nccn2C)c2nccn2C)Cc2ccccc21	-9	1.61
O=C1CN(S(=O)(=O)c2cccc(Cl)c2)C[C@H]2c3ccccc3CCN12	8	-1.03
O=C(O)[C@@H](c1cccnc1)N1CCc2ccc(Cl)c(Cl)c2C1	2	-0.41
CCN1CCn2cc(C(=O)NC3CCCCCC3)nc2C1=O	-7	0.97
CN(Cc1c(F)cccc1Cl)Cn1nc(-c2ccco2)oc1=S	-6	1.05
C[C@@]1(C(=O)N2CCN(c3ccccn3)CC2)CCCCC(=O)N1	-8	0.87
O=C(Nc1cnccn1)c1cc(F)c(Cl)cc1F	-8	1.22
COCCN1C[C@]2(CCCN(C(=O)c3ccc[nH]3)C2)CCC1=O	-10	1.39
O=C(c1cccnc1NCc1cscn1)N1CCc2ccccc21	-8	1.38
CCCCNc1nc(-c2cn(C)nc2C)cc(C(F)F)n1	-33	3.91
Cc1ccc(CN(C)CCc2cnn(C)c2)s1	-6	0.82
O=C1CC[C@H](c2noc(-c3ccc(OC(F)F)nc3)n2)CN1	-8	0.96
CN(C)c1cncc(-c2nc(-c3cnn(CCF)c3)no2)c1	4	-0.49
O=C(c1ccnc2cc(Cl)ccc12)N1CCC(O)(C(F)F)CC1	-9	1.07
COCCN(CC(=O)N(Cc1cccn1Cc1ccc(Br)cc1)C1CCCCC1)C(=O)N(C)C	1	-0.21
O=C(NCCCN1CCCC1=O)c1nnc(Cc2ccccc2Cl)o1	-2	0.3
CC(=O)N1CCC(CC(=O)Nc2ccc3c(c2)ncn3C)(N2Cc3ccccc3C2=O)CC1	-10	1.46
CCN1C(=O)[C@@H]2CC3(CCN(C(=O)CCc4c(C)nn(C)c4C)CC3)CN2C1=O	-5	0.65

SMILES	% Inhibition [%]	Z score
N[C@H]1CN(Cc2[nH]c3ccccc3c2Cl)C[C@@H]1O	5	-0.73
Cc1c(C#N)c(NC(=O)CN(C)S(C)(=O)=O)n2ccccc12	-7	1.1
COc1ccc(S(=O)(=O)Nc2ccc(Nc3ccc(C)nn3)cc2)c(C)c1C	-10	1.81
C[C@@H]1CN(C(=O)c2ccccc2C#N)CC[C@@]1(O)C1CCOCC1	5	-0.62
c1ccc(-n2ncnc2[C@@H]2COCCN2)cc1	31	-1.03
CCCn1nccc1C(=O)NCCCn1ncc2c(C)cccc21	33	-4.47
Cc1ccc(Nc2nc(C)c(C(=O)NCc3cccc(C(F)(F)F)c3)s2)c(C)c1	2	-0.35
O=C(O)C1CN(C(=O)C2COc3ccccc3C2)c2ccccc2O1 (centres undefined)	3	-0.31
COc1ccc([C@@H]2CCCN2c2nnc(-c3ccccn3)s2)cc1	-13	2.42
CC1(C)CN(C(=O)C2(c3ccccc3)CCOCC2)C1(C)C	31	-3.5
CN(CCF)c1cc(=O)n(C)c(=O)n1C	-9	0.89
CN(C)[C@H]1CCN(C(=O)c2cc(F)cc(Cl)c2)C[C@H]1CCCO	-4	0.71
O[C@@H]1C[C@@](CNCc2cccc(Cl)c2)(COc2cccnc2)C[C@@H]1O	-9	1.17
O=C1CO[C@H]2CCN(C(=O)NCCc3ccc(Cl)s3)C[C@@H]2N1	-1	0.16
CCn1cc(Br)c(C(=O)N[C@@H](C)c2ncc(C)s2)n1	-12	2.4
CCCCNC(=O)N[C@@H](C)c1nccc(N)n1	-6	0.85
C=CCN(C(=O)[C@@H]1CCCO1)c1nc2c(s1)CCCC2	-3	0.48
CCOC(=O)N1CCN(c2nc3cc(Cl)ccc3cc2CN(C(=O)c2ccc3c(c2)OCO3)C2CC2)CC1	1	-0.07
O=C(Nc1ccccc1C(F)(F)F)N1C[C@@H]2NCCO[C@H]2C1	-2	0.37
O=C(Cn1nnc2ccccc21)N(Cc1ccccc1)C1(C(=O)Nc2ccc3c(c2)OCO3)CCCCC1	50	-5.71
Cc1c(C(=O)N2CCC[C@H]2CO)sc2ncnc(NCc3ccccc3F)c12	-15	1.97

SMILES	% Inhibition [%]	Z score
CC1CCN(Cc2ncc[nH]2)CC1n1ccnc1 (centres undefined)	-13	1.96
CCCOc1ccc(CN2CC3(C2)CN(C)C(=O)O3)cc1	1	-0.18
Cc1cc(C)n([C@@H](C)C(=O)N(Cc2ccccc2)C2CC2)n1	7	-0.78
O=C1COc2ccc(-c3ccc(C(=O)NC[C@H]4CCCO4)cc3)cc2N1	-16	1.39
O=C([C@@H]1COc2ccccc2O1)N1CCN(c2ccc(-n3cncn3)nn2)CC1	11	-1.36
O=C(CC1(N2Cc3ccccc3C2=O)CCOCC1)N1CCN(c2cccc(Cl)c2)CC1	-13	1.64
C[C@@H](C(=O)N(C)CCCc1nccn1C)N(C)C	-6	1.11
C=CC[C@@H](C(=O)NCc1ccc(O)c(OC)c1)N(C)C	3	-0.45
C=CCN1C[C@H]2CN(C(=O)Cc3ccc(C)c(F)c3)C[C@@]2(C(=O)O)C1	6	-1.07
Cc1n[nH]nc1C(=O)N[C@H]1C[C@@H](c2cc(=O)[nH]c(C3CC3)n2)C1	-16	1.8
Cc1cc(C(=O)N2CCN(S(=O)(=O)c3ccccc3)CC2)on1	-2	0.29
Cc1ccc(-n2nc(C(=O)NC3CC3)c(=O)n(Cc3cccc(C)c3)c2=O)cc1	-10	1.56
Cn1cc(NC(=O)NCC2CC23CCc2ccccc23)cn1 (centres undefined)	-14	1.94
Cn1ccnc1CN1CCCC12CCN(c1ccc(C(F)(F)F)cn1)CC2	15	-2
O=C(c1ccn(C(F)F)n1)N(CCc1ccccc1)Cc1cccnc1	-16	1.6
Cc1nn(C)c(C)c1S(=O)(=O)NC[C@H]1Cn2cccc2CN1Cc1ccccc1	-1	0.22
O=c1[nH]c(N2CCOCC2)nc2nccc(-c3ccc(F)cc3)c12	-3	0.43
O=S(=O)(Cc1ccccc1)NC[C@@H](c1ccsc1)N1CCCCCC1	-7	0.88
COc1ccc(C(C)=O)cc1CN1CCCN(C2CC2)CC1	-1	0.11

From ChEMBL document CHEMBL4888484, “Replenishing the malaria drug discovery pipeline: Screening and hit evaluation of the MMV Hit Generation Library 1 (HGL1) against asexual blood stage Plasmodium falciparum ,using a nano luciferase reporter read-out” (2022)
